The results in this text go back to PubChem BioAssay (NCATS).

A short description of assay [1]: qHTS Assay for Lipid Storage Modulators (AID 1519). The following applies: Drosophila S3 cells, BODIPY lipid droplet/cell ratio, laser cytometry, cells loaded with oleic acid. In short, it runs like this:
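Cells seeded at 5,000 per well were treated with compounds over a concentration series and loaded with oleic acid (400 uM, as added). Lipid droplet fluorescence (488 nm excitation, 500-530 nm channel) was read by laser-scanning cytometry and normalized to 20 uM Triacsin C.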
On the technique in general: Quantitative high-throughput screening tests each substance at several concentrations.

Assay [2] in a line: qHTS drug screen for cell cycle checkpoint inhibitors in PARPi-resistant BRCA-mutant ovarian cancer cell lines. (AID 1963452). Conditions: PEO1/OlaR viability, CellTiter-Glo luminescence, 96 h; measured here: PEO1 parental viability. In outline: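 PEO1, PEO4 and PEO1/OlaR ovarian cancer cells, 600 per well, exposed 96 h at 37C to a dilution series. Viability read by CellTiter-Glo luminescence, normalized to DMSO and empty wells; activity summarized as Z-AUC.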

Assay [3] can be described thus: qHTS for identification of novel therapeutic agents for treatment of microphthalmiaassociated transcription factor (MiT) renal cell carcinoma (RCC) (AID 1963991). Conditions: CellTiter-Glo, 48 h, stronger effect = lower value. In short, it runs like this:
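Three TFE3-fusion RCC cell lines (UOK109, UOK124, UOK145), 500 cells/well, were exposed to the 1912-compound MIPE 4.0 library for 48 hours at 37 C. Viability was read by CellTiter-Glo luminescence, normalised to DMSO (100%) and empty wells (0%), with 11-concentration curve fits.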

A short description of assay [4]: qHTS Assay for Modulators of Human Peripheral Myelin Protein 22 (PMP22) Expression/Activity (AID 1967). The following applies: Cell-based PMP22 reporter, dual-color luciferase ratio. In outline: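 Mouse MSC80 Schwann cells carrying Pmp22 promoter–green click beetle luciferase plus EF-alpha–red luciferase control, dosed 24 h at 37 °C. Dual-filter luminescence, overlap-corrected; %Activity from green/red ratio normalised to untreated cells, concentration-response curves fitted.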

Assay [5] addresses Histamine N-methyltransferase (Homo sapiens) (UniProt P50135). Kind of assay: Confirmatory Screen for Target Class Profiling of Small Molecule Inhibitors of Methyltransferases (AID 1745852).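 Further: inhibitor potency for blocking SAH production.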 Conditions: MTase-Glo luminescence, SAH detection, recombinant enzyme; measured here: HNMT inhibition potency.
UniProt P50135, sequence (P50135 whole entry, looked up): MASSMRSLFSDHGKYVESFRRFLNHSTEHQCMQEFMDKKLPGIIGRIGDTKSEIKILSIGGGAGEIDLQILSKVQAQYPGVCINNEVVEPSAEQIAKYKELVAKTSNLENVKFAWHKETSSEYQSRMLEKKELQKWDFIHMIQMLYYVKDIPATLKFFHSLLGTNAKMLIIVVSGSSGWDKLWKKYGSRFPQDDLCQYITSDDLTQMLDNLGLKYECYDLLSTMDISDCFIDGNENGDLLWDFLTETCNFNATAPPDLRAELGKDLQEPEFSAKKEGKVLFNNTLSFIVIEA
Assay [6] is described as follows: Nrf2 qHTS screen for inhibitors: Validation (AID 493153). Conditions: A549 ARE-Fluc reporter, 18-24 h; AC50: CellTiter-Fluor fluorescence read, measured here: cytotoxicity CellTiter-Fluor AC50; viability change: measured here: cytotoxicity max response. In short, it runs like this:
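A549 ARE_Fluc, 5% FBS OPTI-MEM; cpd titration, 18-24 h, 37°C/5% CO2. Read 1: CellTiter-Fluor (Ex 405/Em 525), cytotox. Read 2: luciferase lum, Nrf2 activity.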

[7] abbreviates: measured here: cell count channel max response.
Where [8] appears, read: measured here: cell number channel AC50.
Setting [9] is: measured here: lipid (BODIPY) channel AC50.
[10] abbreviates: measured here: lipid channel max response.
The mark [11] stands for this setting: measured here: green reporter channel AC50, mouse Pmp22 promoter in mouse Schwann cells.
Where [12] appears, read: measured here: red reporter channel AC50, EF-alpha promoter control reporter in MSC80 mouse Schwann cells.

Values joined by “and” are separate entries in the source; they are usually repeats but may differ in a detail not shown here. Equal values may be shown once. The list shows a part of the results. Further columns of the screen follow, without active or inactive calls. For part of these data: The list favours compounds with an active or inconclusive main result. For part of these data: Words in brackets tell the shape of the fitted curve; partial curves, single points and poor fits give uncertain potencies.
Tags describe the fitted curve by direction and shape.

For `CC(Cc1ccc(OCC(=O)O)cc1)NCC(O)c1cccc(Cl)c1` (stereo not given), the max response in assay [1] (setting [7]) and in assay [1] (setting [10]) was 55.5% throughout. Moreover, the AC50 in assay [1] (setting [8]) was 39.8 µM [rising, single point]; in assay [1] (setting [9]) it was 39.8 µM [rising, single point].
`NO`: the figures for the max response in assay [1] (setting [7]) and in assay [1] (setting [10]) were 42.9% and 41.6%, respectively. Further, the AC50 in assay [1] (setting [8]) was 39.8 µM [rising, single point]; in assay [1] (setting [9]) it was 39.8 µM [rising, single point].
As for `CC1CC[C@@]2(OC1)O[C@@H]1[C@@H](O)[C@H]3C4CC[C@H]5C[C@@H](O[C@@H]6O[C@H](CO)[C@H](O[C@@H]7O[C@H](CO)[C@@H](O)[C@H](O[C@@H]8OC[C@@H](O)[C@H](O)[C@H]8O)[C@H]7O[C@@H]7O[C@H](CO)[C@@H](O)[C@H](O[C@@H]8O[C@H](CO)[C@@H](O)[C@H](O)[C@H]8O)[C@H]7O)[C@H](O)[C@H]6O)[C@H](O)C[C@]5(C)C4CC[C@]3(C)[C@H]1[C@@H]2C` (stereo not given in full), the max response in assay [1] (setting [7]) came to 69.4%; in assay [1] (setting [10]), 99.7%. The half-maximal activity concentration (AC50) in assay [1] (setting [8]) was 39.8 µM [rising, single point]; in assay [1] (setting [9]) it was 39.8 µM [rising, single point].
Turning to `CNCC(O)c1ccc(O)cc1` (stereo not given), the max response in assay [1] (setting [7]) was 20.5%; in assay [1] (setting [10]) it was 25%. For the same molecule, the concentration at half-maximal activity (AC50) is 2.82 µM [falling, full curve, poor fit] in assay [1] (setting [8]); 2.82 µM [falling, full curve, poor fit] in assay [1] (setting [9]); 21.9 µM [rising, single point] in assay [2].
In the case of `CC(C)(O)[C@H]1O[C@@H]2CC[C@]3(C)[C@@]4(C)c5[nH]c6ccccc6c5C[C@@H]4CC[C@]3(O)C2=CC1=O`, the max response in assay [1] (setting [7]) came out at 67.3%; in assay [1] (setting [10]) it was 90.4%. Also, the concentration at half-maximal activity (AC50) was 6.31 µM [rising, partial curve, poor fit] in assay [1] (setting [8]) and 5.62 µM [rising, partial curve] in assay [1] (setting [9]).
As to `CN1Cc2c(ccc3c2OCO3)C2C(O)Cc3cc4c(cc3C21)OCO4` (stereo not given), the max response is 40.9% and 112% in assay [1] (setting [7]); 57.2% and 146% in assay [1] (setting [10]). Further, the AC50 in assay [1] (setting [8]) was 7.08 µM [rising, partial curve] and 2 µM [rising, full curve]; in assay [1] (setting [9]), 5.62 µM [rising, full curve] and 1.58 µM [rising, full curve].
As for `COC1(CS(=O)c2ccccc2)CCN(CCc2c[nH]c3ccc(F)cc23)CC1` (stereo not given), the values for the max response in assay [1] (setting [7]) and in assay [1] (setting [10]) were 57.3% and 70.7%, respectively. The AC50 in assay [1] (setting [8]) is 11.2 µM [rising, partial curve, poor fit]; in assay [1] (setting [9]), 14.1 µM [rising, partial curve, poor fit]. The z-score in assay [3] (TFE3-RCC UOK109 viability, measured here: UOK109 Z-AUC) stood at 0.205; in assay [3] (TFE3-RCC viability, measured here: UOK124 Z-AUC), 0.361; in assay [3] (TFE3-RCC viability, measured here: UOK145 Z-AUC), 0.0417.
As for `CC1=NN=C(c2ccc(N)cc2)c2cc3c(cc2C1)OCO3`, the max response in assay [1] (setting [7]) is 119% and 59.1%; in assay [1] (setting [10]) it was 181% and 62.5%. Besides, the half-maximal activity concentration (AC50) in assay [1] (setting [8]) is 2.24 µM [rising, full curve]; in assay [1] (setting [9]) it was 2.51 µM [rising, full curve]; in assay [4] (setting [11]), 84.9 µM [falling, single point].
As to `NCCc1c[nH]c2ccccc12`, the max response came to 32.1% in assay [1] (setting [7]) and 32% in assay [1] (setting [10]). Further, the AC50 is 39.8 µM [rising, single point] in assay [1] (setting [8]); 39.8 µM [rising, single point] in assay [1] (setting [9]); 95.3 µM [falling, single point] in assay [4] (setting [12]). For the same molecule, the IC50 in assay [5] is 1.93 µM [falling, full curve].
`COC1=C[C@H]2[C@H]3Cc4ccc(OC)c(O)c4[C@@]2(CCN3C)CC1=O`: the max response in assay [1] (setting [7]) was determined as 42.6%; in assay [1] (setting [10]) it was 43.6%. Also, the AC50 in assay [1] (setting [8]) was 39.8 µM [rising, single point]; in assay [1] (setting [9]) it was 35.5 µM [rising, single point].
On to `O=C(Oc1ccccc1)N1CCC2(CCN(Cc3ccncc3)CC2)CC1`, for which the max response worked out at 30.9% in assay [1] (setting [7]) and 45.8% in assay [1] (setting [10]). The AC50 in assay [1] (setting [8]) was 0.562 µM [rising, partial curve, poor fit]; in assay [1] (setting [9]), 1.26 µM [rising, full curve, poor fit].
Take `N[C@H](CCCCCP(=O)(O)O)C(=O)O`: the max response in assay [1] (setting [7]) was -28.3% and 23.1%; in assay [1] (setting [10]), -31.8% and 23.2%. Moreover, the AC50 in assay [1] (setting [8]) is 8.91 µM [falling, partial curve, poor fit] and 25.1 nM [falling, full curve, poor fit]; in assay [1] (setting [9]), 708 nM [falling, full curve, poor fit] and 22.4 nM [falling, full curve, poor fit]; in assay [4] (setting [12]), 84.9 µM [falling, single point].
With `N#CC(=Cc1ccc(O)c(O)c1)C(N)=S`, the results for the max response in assay [1] (setting [7]) and in assay [1] (setting [10]) were -42.1% and -43.4%, respectively. Moreover, the AC50 in assay [1] (setting [8]) was 7.94 µM [falling, full curve, poor fit]; in assay [1] (setting [9]), 7.94 µM [falling, full curve, poor fit]; in assay [4] (setting [12]) it was 67.5 µM [falling, partial curve].
On to `CC(C)C(=O)Nc1ccc([N+](=O)[O-])c(C(F)(F)F)c1`, for which the max response is -26.6% in assay [1] (setting [7]) and -25.4% in assay [1] (setting [10]). The half-maximal activity concentration (AC50) was 2.51 µM [falling, full curve, poor fit] in assay [1] (setting [8]); 2.51 µM [falling, full curve, poor fit] in assay [1] (setting [9]); 75.7 µM [falling, partial curve] in assay [4] (setting [11]); 95.3 µM [falling, single point] in assay [4] (setting [12]). Further, the viability change in assay [6] is 3.89%.
For the molecule `N#C/C(=C\c1ccc(O)c(O)c1)C(=O)NCCCNC(=O)/C(C#N)=C/c1ccc(O)c(O)c1`, the figures for the max response in assay [1] (setting [7]) and in assay [1] (setting [10]) were -23.1% and -28.9%, respectively. In addition, the AC50 was 5.01 µM [falling, partial curve, poor fit] in assay [1] (setting [8]); 5.01 µM [falling, partial curve, poor fit] in assay [1] (setting [9]); 84.9 µM [falling, single point] in assay [4] (setting [12]); 5.17 µM [falling, partial curve, poor fit] in assay [6]. In addition, the viability change in assay [6] is -20.3%.

One may read the AC50 as the concentration giving half of the maximal activity seen. The IC50 is the concentration needed to halve the response being measured.
